The whole screen tested about 220,000 compounds, of which about 5,700 (2.6%) were called active. Inconclusive means that the source gave no clear call. Such entries were picked first, then a sample of the others. The call rests on the fitted dose curve; in most records, active means well fitted inhibition curve with a large enough effect; inconclusive means small, poorly fitted or top-dose-only effect; inactive means no such curve, though single readings can be large or run the other way. Potencies of inconclusive entries are doubtful fits and often do not repeat.
The molecules below were run against Lysine-specific demethylase 5B (Homo sapiens) (UniProt Q9UGL1) (assay: Primary screen for KDM5B Histone Demethylases FDH-coupled qHTS). Conditions: FDH-coupled NADH fluorescence (FDH is formaldehyde dehydrogenase); activity change, negative = inhibition: at 57.7 µM (top of the series) unless noted.
Chain of UniProt Q9UGL1 (Q9UGL1 whole entry, looked up): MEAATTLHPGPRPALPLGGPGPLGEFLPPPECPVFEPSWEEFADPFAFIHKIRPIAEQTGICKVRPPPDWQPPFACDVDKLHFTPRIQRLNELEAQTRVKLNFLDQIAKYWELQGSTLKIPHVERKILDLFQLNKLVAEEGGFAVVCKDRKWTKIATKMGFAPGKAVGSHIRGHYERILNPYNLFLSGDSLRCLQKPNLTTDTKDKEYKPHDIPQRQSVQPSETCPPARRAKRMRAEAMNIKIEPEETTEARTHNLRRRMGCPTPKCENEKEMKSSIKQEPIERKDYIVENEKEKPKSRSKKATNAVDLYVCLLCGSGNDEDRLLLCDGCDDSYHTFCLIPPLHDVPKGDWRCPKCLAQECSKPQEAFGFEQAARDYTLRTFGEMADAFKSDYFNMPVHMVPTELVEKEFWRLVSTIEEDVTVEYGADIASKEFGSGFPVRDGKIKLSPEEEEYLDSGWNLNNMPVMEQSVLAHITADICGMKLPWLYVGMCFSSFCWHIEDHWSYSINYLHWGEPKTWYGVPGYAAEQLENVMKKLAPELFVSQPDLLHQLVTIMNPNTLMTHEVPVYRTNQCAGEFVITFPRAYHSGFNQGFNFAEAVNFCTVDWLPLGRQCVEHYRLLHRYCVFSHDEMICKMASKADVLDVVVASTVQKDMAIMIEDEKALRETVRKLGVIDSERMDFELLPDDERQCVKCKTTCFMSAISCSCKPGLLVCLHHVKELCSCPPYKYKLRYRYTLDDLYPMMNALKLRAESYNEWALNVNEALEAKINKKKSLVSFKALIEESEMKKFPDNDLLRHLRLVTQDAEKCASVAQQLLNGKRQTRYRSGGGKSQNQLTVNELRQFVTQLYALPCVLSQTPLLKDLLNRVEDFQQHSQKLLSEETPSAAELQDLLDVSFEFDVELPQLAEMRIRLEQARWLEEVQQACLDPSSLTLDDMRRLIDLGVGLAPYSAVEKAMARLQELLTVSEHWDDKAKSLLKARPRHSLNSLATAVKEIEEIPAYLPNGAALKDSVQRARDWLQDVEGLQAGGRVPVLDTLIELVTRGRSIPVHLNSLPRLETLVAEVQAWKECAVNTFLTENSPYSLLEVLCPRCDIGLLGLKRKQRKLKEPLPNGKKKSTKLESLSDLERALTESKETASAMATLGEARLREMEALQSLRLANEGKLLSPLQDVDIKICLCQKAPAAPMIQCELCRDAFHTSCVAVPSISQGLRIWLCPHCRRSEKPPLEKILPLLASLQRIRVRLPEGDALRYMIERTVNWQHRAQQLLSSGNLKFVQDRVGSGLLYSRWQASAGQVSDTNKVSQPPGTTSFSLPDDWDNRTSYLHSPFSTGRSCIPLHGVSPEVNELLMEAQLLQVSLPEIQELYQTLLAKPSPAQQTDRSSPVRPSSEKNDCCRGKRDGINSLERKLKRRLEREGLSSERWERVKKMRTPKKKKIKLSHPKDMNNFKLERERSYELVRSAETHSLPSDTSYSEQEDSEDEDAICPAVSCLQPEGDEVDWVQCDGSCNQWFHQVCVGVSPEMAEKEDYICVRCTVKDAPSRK
Summary of the method: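 KDM5BΔAP (200 nM final) in 50 mM HEPES pH 7.5, 0.01% Tween-20 was preincubated 10 min at RT with compound over a concentration range. Substrate mix (H3K4me3 12.5 µM, α-KG 25 µM, Fe²⁺, ascorbate, NAD⁺, FDH) was added, and NADH fluorescence change over 30 min gave dose-response curves.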
Further: nearly all actives have a fitted effect of over 70% in size.
Potency means the concentration at half of the fitted maximal effect; tags describe the fitted curve by direction and shape.
Wherever activity change, negative = inhibition is given: 0% is about no effect.

| SMILES | Potency | activity change, negative = inhibition |
| --- | --- | --- |
| O=C(CCc1nc2ccccc2s1)N1CCCC1c1nc(CCOCC2CC2)no1 (configuration not stated) | inactive |  |
| Cc1coc2cc3oc(=O)c(CC(=O)NCc4ccccc4)c(C)c3cc12 | inconclusive: 2.82 µM [inhibitor, full curve, poor fit] |  |
| N#Cc1ccc(COc2ccccc2C#N)cc1 | inactive |  |
| COc1ccccc1CNC(=O)CCc1c(C)c2ccc(O)c(C)c2oc1=O | inconclusive: 28.2 µM [inhibitor, partial curve, poor fit] |  |
| COc1ccccc1NC(=O)Cn1c(=O)n(Cc2cccs2)c(=O)c2cccnc21 | inconclusive: 2.82 µM [inhibitor, full curve, poor fit] |  |
| O=[S+]([O-])(c1ccccc1)N1CCCC2(CC(c3cccnc3)=NO2)C1 (configuration not stated) | inconclusive: 112 µM [inhibitor, partial curve] |  |
| COc1ccc(CNC(=O)c2cc3c(=O)[nH]c(C)cn3n2)c(OC)c1 | inactive |  |
| Cc1c(CN2CCCC(C(=O)Nc3cccc(-c4cc5ccccc5[nH]4)c3)C2)cnn1C (configuration not stated) | active: 28.2 µM |  |
| CC(=O)c1ccc(NC(=O)c2ccc3c(c2)nnn3C2CCCC2)cc1 | inactive |  |
| Cc1ccc(C)c(NC(=O)c2nc(S(C)(=O)=O)ncc2N(Cc2ccc(C(C)(C)C)cc2)Cc2ccco2)c1 | inconclusive: 15.8 µM [inhibitor, partial curve, poor fit] |  |
| CN1C(=O)Cc2cc(S(=O)(=O)N3CCN(c4cccc(C(F)(F)F)c4)CC3)ccc21 |  | inconclusive: -76.7% [inhibitor] [at 11.5 µM] |
| O=C(NCc1nnc2ccc(-c3ccc(Cl)cc3)nn12)C1(c2ccccc2)CC1 | active: 20 µM |  |
| COc1ccc(Nc2nc(N3CCCC3)c3nccnc3n2)c(OC)c1 | inactive |  |
| Cc1noc(C)c1-c1nccc2c(=O)cc(N(C)c3ccccc3)oc12 | inconclusive: 31.6 µM [inhibitor, single point] |  |
| Cc1ccc(C)c(C(=O)NCCn2ccn3nc(-c4cc(C)ccc4C)cc3c2=O)c1 | active: 31.6 µM |  |
| COC(=O)c1cc(=O)n2c(sc3ccccc32)c1C#N | inconclusive: 28.2 µM [inhibitor, partial curve, poor fit] |  |
| CC1(C)CC(=O)C2=C(C1)Nc1[nH]n(-c3ccccc3)c(=O)c1C2c1ccccc1F (configuration not stated) | inactive |  |
| Cc1ccccc1CNC(=O)Cn1ccc2cc(S(=O)(=O)N3CCCCC3)ccc21 | inconclusive: 1.26 µM [inhibitor, partial curve, poor fit] |  |
| Cc1cccc(N(C(=O)c2snc(C(N)=O)c2N)C(C(=O)NC2CCCC2)c2ccc(C)o2)c1 (configuration not stated) | inconclusive: 28.2 µM [inhibitor, partial curve, poor fit] |  |
| CCn1cc(CN2CCC(n3nccc3NC(=O)CCCc3ccccc3)CC2)cn1 | inactive |  |
| N#Cc1cccc(/C=C/C(=O)c2cccc(N3CCOCC3)c2)c1 | inconclusive: 20 µM [inhibitor, partial curve, poor fit] |  |
| COc1ccc(CCNC(=O)c2cc3c(s2)-c2c(C)cccc2OC3)cc1OC | inconclusive: 28.2 µM [inhibitor, partial curve, poor fit] |  |
| O=c1c2nc(N3CCC(c4ccccc4)CC3)ccc2ncn1C1CC1 | active: 35.5 µM |  |

| SMILES | Potency | activity change, negative = inhibition |
| --- | --- | --- |
| CCOC(=O)C1=C(C)N=C2SC=C(CC(=O)N3CCCC3)N2C1c1cc(OC)cc(OC)c1 (configuration not stated) | inactive |  |
| O=S(=O)(Nc1nc2ccccc2nc1NCc1ccc2c(c1)OCO2)c1cccc(Cl)c1 | inactive |  |
| COc1ccc(OC)c(CN2CCCCCC2c2cccs2)c1 (configuration not stated) | inactive |  |
| COc1ccccc1C(=O)NCc1nnnn1-c1ccc(C)c(C)c1 |  | inconclusive: -36.5% [inhibitor] |
| O=c1cc(N2CCOCC2)oc2c(NCc3ccncc3)nccc12 | active: 35.5 µM |  |
| CCC1CCCCN1CCCNC(=O)c1c(O)nc2ccccn2c1=O (configuration not stated) | inconclusive: 28.2 µM [inhibitor, partial curve, poor fit] |  |
| CC1=C[C@@H](CNS(=O)(=O)c2cccs2)[C@H](C(C)C)C[C@H]1CC(=O)NCc1ccc(C#N)cc1 | inconclusive: 28.2 µM [inhibitor, single point] |  |
| CCOC(=O)COc1nc(-c2ccco2)cc(-c2ccco2)c1C#N | inconclusive: 25.1 µM [inhibitor, partial curve, poor fit] |  |
| CC1=C[C@@H](CNC(C)C)[C@H](C(C)C)C[C@H]1Cc1nnc(-c2ccncc2)o1 | inconclusive: 25.1 µM [inhibitor, partial curve, poor fit] |  |
| CCCC[n+]1ccn(-c2nc3ccccc3nc2[N-]S(=O)(=O)c2cccs2)c1 | inconclusive: 28.2 µM [inhibitor, partial curve, poor fit] |  |
| CN1CCN(c2ccc3ncc(Nc4ccccc4-c4ccccc4)n3n2)CC1 | inconclusive: 28.2 µM [inhibitor, partial curve, poor fit] |  |
| Cc1sc(NC(=O)C(c2ccccc2)c2ccccc2)c(C#N)c1C | inconclusive: 25.1 µM [inhibitor, single point] |  |
| O=C(Nc1ccccc1)N1CCc2c(c3ccccc3n2CC2CC2)C1 | active: 31.6 µM |  |
| COc1ccc(C2=C(C)C(=O)N(Cc3ccc(C(=O)Nc4cccc(F)c4)cc3)S2(=O)=O)cc1 | inconclusive: 15.8 µM [inhibitor, partial curve, poor fit] |  |
| Cc1ccc(CNC(=O)Cn2ccn3nc4c(c3c2=O)CC(C)CC4)cc1 (configuration not stated) | inconclusive: 22.4 µM [inhibitor, single point] |  |
| CC1=CC(=O)C2(CCCCC2)NC1 | inactive |  |
| O=C(NCc1ccc(F)cc1)c1nc(-c2ccc(Cl)cc2Cl)c2cnccn12 | active: 56.2 µM |  |
| O=C(c1ccncc1)N1CCC(Cc2nc(C3CC3)n[nH]2)CC1 | inconclusive: 15.8 µM [inhibitor, partial curve] |  |
| Cc1ccc(-c2nc3c(C)cccn3c2Nc2ccccc2C)s1 | inconclusive: 35.5 µM [inhibitor, partial curve, poor fit] |  |
| CN(C)c1cccc(-c2nc(C3CC(=O)N(c4ccc(F)cc4)C3)no2)c1 (configuration not stated) | active: 35.5 µM |  |
| COCc1nc(C2CCCN(C(=O)CCC3CCCC3)C2)no1 (configuration not stated) | inactive |  |
| CCN(CCCNC(=O)c1ccc(Sc2ccc(F)cc2)c(NC(C)=O)c1)c1ccccc1 | inconclusive: 44.7 µM [inhibitor, single point] |  |
| Cc1nc(-c2cccc(Cl)c2)n(Cc2ccc(C#N)cc2)c(=O)c1CCO | inactive |  |

| SMILES | Potency | activity change, negative = inhibition |
| --- | --- | --- |
| CCOc1cc(C#N)ccc1OCc1ccc(OC)c(F)c1 | inactive |  |
| COc1ccccc1OCCNC(=O)CCC[C@H]1NC[C@@H]2C[C@H]1CN(Cc1ccccc1)C2 | inconclusive: 15.8 µM [inhibitor, partial curve, poor fit] |  |
| COc1ccc2[nH]c(C(=O)N3CCC4(CC3)CC(c3nc(C)no3)N(C)C4)cc2c1 (configuration not stated) | inconclusive: 28.2 µM [inhibitor, partial curve, poor fit] |  |
| CN1CCCCCC(O)c2cc(C(=O)NCc3cc(F)cc(F)c3)ccc21 (configuration not stated) | inconclusive: 31.6 µM [inhibitor, single point] |  |
| CC(C)NC(=O)N[C@H]1C[C@H]2C(=O)NC[C@@H](CCC(=O)N3CCCC3)N2C1 | inactive |  |
| COCc1cc(=O)n(CC(=O)NCc2cccc(OC)c2)c(N2CCOCC2)n1 | inconclusive: 14.1 µM [inhibitor, partial curve] |  |
| COC(=O)c1sc(NC(=O)C2CCCCC2)c(C(=O)OC)c1C | inactive |  |
| O=C1CCCN1CC1CCN(C(=O)c2ccc(N3CCC(CO)C3)nc2)CC1 (configuration not stated) | inconclusive: 31.6 µM [inhibitor, single point] |  |
| CC(C)CN(C(=O)CC1COc2ccc(C(=O)N(C)C)cc2N1C)C1CC1 (configuration not stated) | inactive |  |
| O=C(NCc1nnc2ccc(-c3ccc(F)cc3)nn12)c1cccc(OC(F)(F)F)c1 | inconclusive: 28.2 µM [inhibitor, partial curve, poor fit] |  |
| Cc1cc(N2CCN(C(C(=O)O)c3c[nH]c4ccccc34)CC2)nc2ccccc12 (configuration not stated) | inconclusive: 39.8 µM [inhibitor, single point] |  |
| COc1ccc(-c2cc(-c3ccc(F)cc3)cn3cncc23)cc1 | active: 5.62 µM |  |
| Cc1ccc(NC(=O)Nc2ccc3nc(N4CCN(C)CC4)cc(C)c3c2)cc1F | inconclusive: 3.55 µM [inhibitor, full curve, poor fit] |  |
| N#C/C(=C\c1cccc(F)c1)c1nc(-c2cc3c(ccc4ccccc43)oc2=O)cs1 | inconclusive: 22.4 µM [inhibitor, partial curve, poor fit] |  |
| O=C(O)c1cccc(Cn2c(Cl)c(/C=N/NC(=O)c3ccc(O)cc3)sc2=O)c1 | inconclusive: 28.2 µM [inhibitor, single point] |  |
| Cc1cc(SSc2nc(C)cc(C)n2)nc(C)n1 | inconclusive: 7.08 µM [inhibitor, full curve, poor fit] |  |
| O=C(c1nc(-c2ccc(Cl)nc2)c2cnccn12)N1CCN(c2ncccn2)CC1 | inconclusive: 79.4 µM [inhibitor, partial curve, poor fit] |  |
| COCCN1CCCCCC(O)c2cc(C(=O)NCc3cc(F)cc(F)c3)ccc21 (configuration not stated) | inconclusive: 28.2 µM [inhibitor, single point] |  |
| COc1ccc(-c2cc(COc3ccc(Cl)cc3)on2)cc1 | inactive |  |
| O=C(c1ccncc1)N1C[C@@H]2OCC(=O)N(Cc3ccc(F)cc3)[C@@H]2C1 | inconclusive: 31.6 µM [inhibitor, partial curve, poor fit] |  |
| COc1cc(C2C(C(=O)OC(C)C)=C(C)Nc3nc4ccccc4n32)cc(OC)c1OC (configuration not stated) | inactive |  |

— PubChem BioAssay AID1347165 (National Center for Advancing Translational Sciences (NCATS), 2019)
